# Source: the supplement of paper PMC12217912
# This is one part of the list. The full chains were built here from the parent and the listed change. Inactive controls read about 0.05.
# B1: TEV protease; numbered along this chain (parent)
# chain: MGESLFKGPRDYNPISSSICHLTNESDGHTTSLYGIGFGPFIITNKHLFRRNNGTLVVQSLHGVFKVKDTTTLQQHLVDGRDMIIIRMPKDFPPFPQKLKFREPQREERICLVTTNFQTKSMSSMVSDTSCTFPSGDGIFWKHWIQTKDGQCGSPLVSTRDGFIVGIHSASNFTNTNNYFTSVPKNFMELLTNQEAQQWVSGWRLNADSVLWGGHKVFMVKPEEPFQPVKEATQL
# Variants of: B1
# Assay: raw area under fraction-flipped curve 0-4 h after induction (AUC4h, not background-subtracted), DNA-recorder readout of cleavage of the substrate (dimensionless); higher = more cleavage of the substrate by the protease variant
# Settings: temperature: 34 °C; time window: 0-4 h after rhamnose induction
# Protocol: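 In vivo DNA recorder in E. coli TOP10(DE3) ΔrhaA at 34 °C. Each TEVp single-site mutant (parent TEVp 0) is paired with a single-site variant of the 7-mer TEVs (canonical ENLYFQ|S). The substrate sits between flexible linkers in a Bxb1-sfGFP-TEVs-SsrA fusion, so cleavage stabilises Bxb1 and speeds flipping of a recombination array, read by NGS. The value is the raw area under the fraction-flipped curve over 0-4 h after rhamnose induction (AUC4h), with ≥20 reads per time point. It is not background-subtracted; inactive controls average about 0.047.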
# 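Note: Bxb1 expression induced with 0.2% (w/v) L-rhamnose at OD600 near 0.5, cultures sampled hourly, flipped fraction per protease–substrate barcode pair counted by paired-end Illumina sequencing.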
Variant,area with substrate ENLAFQS,area with substrate ENLCFQS,area with substrate ENLDFQS,area with substrate ENLEFQS,area with substrate ENLFFQS,area with substrate ENLGFQS,area with substrate ENLIFQS,area with substrate ENLKFQS,area with substrate ENLLFQS,area with substrate ENLNFQS,area with substrate ENLPFQS,area with substrate ENLQFQS,area with substrate ENLRFQS,area with substrate ENLSFQS,area with substrate ENLVFQS,area with substrate ENLWFQS,area with substrate ENLHFQS,area with substrate ENLMFQS,area with substrate ENLTFQS
MGESLFKGPRDFNPISSSICHLTNESDGHTTSLYGIGFGPFIITNKHLFRRNNGTLVVQSLHGVFKVKDTTTLQQHLVDGRDMIIIRMPKDFPPFPQKLKFREPQREERICLVTTNFQTKSMSSMVSDTSCTFPSGDGIFWKHWIQTKDGQCGSPLVSTRDGFIVGIHSASNFTNTNNYFTSVPKNFMELLTNQEAQQWVSGWRLNADSVLWGGHKVFMVKPEEPFQPVKEATQL [Y12F],0.0733,0.0783,0.0795,0.0719,0.0986,0.0641,0.0721,0.0706,0.0763,0.0682,0.0513,0.0818,0.0462,0.0572,0.0829,0.0634,,,
MGESLFKGPRDYNQISSSICHLTNESDGHTTSLYGIGFGPFIITNKHLFRRNNGTLVVQSLHGVFKVKDTTTLQQHLVDGRDMIIIRMPKDFPPFPQKLKFREPQREERICLVTTNFQTKSMSSMVSDTSCTFPSGDGIFWKHWIQTKDGQCGSPLVSTRDGFIVGIHSASNFTNTNNYFTSVPKNFMELLTNQEAQQWVSGWRLNADSVLWGGHKVFMVKPEEPFQPVKEATQL [P14Q],0.0669,,0.063,,0.0897,,0.1,0.0866,,0.069,0.061,,0.0903,0.0625,,0.0539,0.0747,,
MGESLFKGPRDYNVISSSICHLTNESDGHTTSLYGIGFGPFIITNKHLFRRNNGTLVVQSLHGVFKVKDTTTLQQHLVDGRDMIIIRMPKDFPPFPQKLKFREPQREERICLVTTNFQTKSMSSMVSDTSCTFPSGDGIFWKHWIQTKDGQCGSPLVSTRDGFIVGIHSASNFTNTNNYFTSVPKNFMELLTNQEAQQWVSGWRLNADSVLWGGHKVFMVKPEEPFQPVKEATQL [P14V],0.0675,0.068,0.0646,0.0612,0.0867,0.0544,0.0635,0.053,0.0647,0.0659,0.0724,0.0881,0.0768,0.0695,,0.054,0.0611,,
MGESLFKGPRDYNPISSSIKHLTNESDGHTTSLYGIGFGPFIITNKHLFRRNNGTLVVQSLHGVFKVKDTTTLQQHLVDGRDMIIIRMPKDFPPFPQKLKFREPQREERICLVTTNFQTKSMSSMVSDTSCTFPSGDGIFWKHWIQTKDGQCGSPLVSTRDGFIVGIHSASNFTNTNNYFTSVPKNFMELLTNQEAQQWVSGWRLNADSVLWGGHKVFMVKPEEPFQPVKEATQL [C20K],0.0583,0.0479,0.0505,0.0454,0.0446,,,0.0526,0.0489,0.042,0.0512,0.0472,0.0535,0.0345,0.0474,0.0484,0.0478,0.0508,0.0627
